Consider 94 sequences from the supplement of paper PMC3334620.

Whole data set: some 33,000 sequences, median “E-score (-0.5 to 0.5)” near -0.054, cut for the highest 2% near 0.35. This is one part of the list.

This test addresses T1, Stb5 (UniProt P38699).
T1 sequence: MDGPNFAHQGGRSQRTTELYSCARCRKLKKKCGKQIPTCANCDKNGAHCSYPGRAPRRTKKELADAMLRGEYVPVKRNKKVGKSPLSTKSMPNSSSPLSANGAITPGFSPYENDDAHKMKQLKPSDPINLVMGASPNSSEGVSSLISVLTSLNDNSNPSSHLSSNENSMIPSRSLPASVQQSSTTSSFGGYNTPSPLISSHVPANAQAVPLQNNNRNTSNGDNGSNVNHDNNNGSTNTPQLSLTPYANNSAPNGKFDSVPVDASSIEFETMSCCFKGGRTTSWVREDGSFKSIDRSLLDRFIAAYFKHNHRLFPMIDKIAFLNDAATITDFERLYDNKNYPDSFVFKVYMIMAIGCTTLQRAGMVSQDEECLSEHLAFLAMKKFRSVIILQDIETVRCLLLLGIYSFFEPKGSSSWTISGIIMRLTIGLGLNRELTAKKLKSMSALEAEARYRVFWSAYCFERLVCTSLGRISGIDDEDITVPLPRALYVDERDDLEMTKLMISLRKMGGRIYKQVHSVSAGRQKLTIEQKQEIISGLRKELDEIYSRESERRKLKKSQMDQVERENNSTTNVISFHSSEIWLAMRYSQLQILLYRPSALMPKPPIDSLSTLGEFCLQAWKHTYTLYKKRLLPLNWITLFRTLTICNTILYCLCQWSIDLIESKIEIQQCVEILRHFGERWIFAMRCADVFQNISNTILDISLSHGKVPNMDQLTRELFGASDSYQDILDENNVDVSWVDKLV
Briefly: PBM E-score (8-mer binding enrichment) (E-score (-0.5 to 0.5)); higher = stronger / more preferred TF binding; most listed sequences are background and not binding sites. The note with it: protein concentration: 200 nM; construct: GST-full length. In a few lines:
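Yeast transcription factors, full-length or as DNA-binding domains, were expressed with a GST tag using PURExpress in vitro transcription/translation. At about 100-200 nM they were applied to universal all-10-mer Agilent arrays, double-stranded by primer extension on fresh or once-stripped slides. Fluorescent anti-GST detected bound protein, and masliner normalised the scans. E-scores for ungapped eight-base words, pooled with reverse complements, came from the Universal PBM Analysis Suite.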
Consider ATATTTGA, for which the “PBM E-score” value was -0.0169.

On to ATTACTGC, for which the “PBM E-score” value was found to be 0.0035.

For AGCTCCCA, the “PBM E-score” value was -0.201.

Consider GTAGAGAA, for which the “PBM E-score” value is -0.162.

As for CCAACTAA, the “PBM E-score” value was -0.00745.

On to AACATCTA, for which the “PBM E-score” value is -0.209.

As to CCAGAATA, the “PBM E-score” value is 0.0023.

Consider AAAAACTC, for which the “PBM E-score” value was -0.0908.

On to ACCGTGCA, for which the “PBM E-score” value was 0.174.

Consider CCACTTCA, for which the “PBM E-score” value was -0.0394.

Regarding CACGGTCC, the “PBM E-score” value was determined as 0.135.

On to CAGATTCA, for which the “PBM E-score” value was -0.267.

In the case of ACCCTTCC, the “PBM E-score” value was -0.0754.

Turning to GATTCTGC, the “PBM E-score” value is 0.0324.

In the case of GTGGTAAA, the “PBM E-score” value stood at 0.0327.

In the case of ACTTCGGC, the “PBM E-score” value turned out to be 0.169.

In the case of GCGATCGA, the “PBM E-score” value is -0.119.

For the sequence ATCAAACG, the “PBM E-score” value was 0.0736.

For the sequence ATCCCGAT, the “PBM E-score” value worked out at 0.238.

For the sequence GCTAATTA, the “PBM E-score” value worked out at 0.048.

For ATTGAAAA, the “PBM E-score” value turned out to be 0.103.

Regarding CTTTCATC, the “PBM E-score” value is -0.149.

Consider TCATACGA, for which the “PBM E-score” value was -0.104.

With CGCGGCCC, the “PBM E-score” value is 0.227.

As to GAGCTGAC, the “PBM E-score” value is -0.0158.

With CTTTAGCA, the “PBM E-score” value was found to be 0.133.

As for CGGAAGAC, the “PBM E-score” value is 0.118.

For AAGTTGGA, the “PBM E-score” value is -0.127.

ACATGTGG: the “PBM E-score” value is -0.0719.

With GCCTTAAA, the “PBM E-score” value is 0.12.

In the case of ACGCCCAT, the “PBM E-score” value was found to be 0.101.

Take CACTATTA: the “PBM E-score” value came to 0.0326.

Turning to CATCAGAC, the “PBM E-score” value turned out to be 0.0922.

For CGTTAGGA, the “PBM E-score” value worked out at 0.102.

Take CGGTTTAA: the “PBM E-score” value was determined as 0.155.

On to CCATGAGG, for which the “PBM E-score” value is -0.0613.

In the case of GCAGAAAA, the “PBM E-score” value was -0.00391.

Take CGATATTA: the “PBM E-score” value was 0.00284.

With ACCCATGG, the “PBM E-score” value is -0.204.

Take GTTGTATA: the “PBM E-score” value was 0.0296.

AAGTAGCT: the “PBM E-score” value was -0.281.

As to AAGAGGCA, the “PBM E-score” value was -0.337.

For the sequence AATGATCC, the “PBM E-score” value was -0.0728.

For the sequence AGAACAAG, the “PBM E-score” value was -0.239.

As for CCAAGCAA, the “PBM E-score” value was -0.148.

With CTGTTTCC, the “PBM E-score” value was 0.0582.

For the sequence AGTTAGAG, the “PBM E-score” value worked out at 0.0437.

CACGTGCC: the “PBM E-score” value is -0.129.

Consider GTTAGTGA, for which the “PBM E-score” value was -0.0185.

Regarding AGAATTGA, the “PBM E-score” value was -0.0265.

For AAAGTCGG, the “PBM E-score” value came out at 0.332.

For the sequence ACGTGTGC, the “PBM E-score” value was -0.352.

Take AGCAGTGG: the “PBM E-score” value was -0.117.

Regarding AGGTCTGA, the “PBM E-score” value is -0.227.

As to TTATCCAA, the “PBM E-score” value amounted to 0.0137.

As for GACGGAAC, the “PBM E-score” value was 0.121.

Consider AACGCCGA, for which the “PBM E-score” value was 0.456.

In the case of CTGCGACC, the “PBM E-score” value is -0.0552.

For the sequence CTAGCTTA, the “PBM E-score” value is -0.0794.

For GGACAATA, the “PBM E-score” value was determined as 0.136.

Turning to ATAGCGGA, the “PBM E-score” value amounted to 0.345.

On to AGCGGAAC, for which the “PBM E-score” value amounted to 0.295.

As to GACAGCGC, the “PBM E-score” value came to 0.245.

CCTTGCCG: the “PBM E-score” value was found to be 0.0193.

AGAAAAAT: the “PBM E-score” value was -0.161.

Regarding ACTCGAGG, the “PBM E-score” value was -0.218.

Take CCCAACAC: the “PBM E-score” value was -0.0453.

As for CACTATGA, the “PBM E-score” value is -0.219.

Consider ACTATAAT, for which the “PBM E-score” value was 0.0519.

AGGAAATC: the “PBM E-score” value was -0.00224.

In the case of CCACAAAA, the “PBM E-score” value is -0.119.

As to ACGTTGCG, the “PBM E-score” value came out at 0.0488.

In the case of GCCATAGC, the “PBM E-score” value turned out to be 0.0758.

Regarding CCTGTAAC, the “PBM E-score” value is -0.126.

Turning to AAATCATC, the “PBM E-score” value was -0.268.

In the case of AAAAATGT, the “PBM E-score” value came out at 0.037.

With AGACTCTG, the “PBM E-score” value is -0.341.

In the case of AATACGGC, the “PBM E-score” value turned out to be 0.104.

For AGTTGTGA, the “PBM E-score” value was -0.238.

For ACGAATAC, the “PBM E-score” value is -0.154.

Take GGAAACAA: the “PBM E-score” value was -0.11.

Consider CCAAACAA, for which the “PBM E-score” value is 0.00788.

Consider ACACCATG, for which the “PBM E-score” value was -0.0934.

Regarding CCTTGTAA, the “PBM E-score” value is -0.0634.

With CCGCCCGC, the “PBM E-score” value turned out to be 0.362.

As for ATTATTGC, the “PBM E-score” value is 0.121.

Take GATCAGAC: the “PBM E-score” value is -0.106.

As for AAGCCTCG, the “PBM E-score” value is -0.112.

TAGATTAA: the “PBM E-score” value is -0.135.

In the case of CGAGCGTC, the “PBM E-score” value is -0.0512.

With CCTTCGAA, the “PBM E-score” value is -0.00989.

Consider CCCGGCTC, for which the “PBM E-score” value was determined as 0.0435.

For the sequence AGACTCTA, the “PBM E-score” value was -0.304.

For AACAATCC, the “PBM E-score” value came to 0.0806.
